Source: the supplement of paper PMC11417369
Some of the results follow.

What follows are sequences tested on PfHDP1 homeodomain (GST-tagged) (assay: gcPBM binding intensity (ln(normalized median fluorescence intensity)); higher = stronger DNA binding).
Summary of the method: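 The binding buffer was 1× PBS containing 1% milk, 0.2 mg/ml BSA, 0.5% salmon testes DNA and 0.03% Triton X-100. In it, GST-tagged P. falciparum DNA-binding domains expressed in E. coli were applied for 1 h to an Agilent 4 × 180k array of primer-extended double-stranded 36-bp intergenic genomic probes plus negative controls. Binding intensity, read with Alexa488 anti-GST antibody and a 488 nm scan, is the highest Masliner-normalised natural-log median intensity across replicate spots of either probe orientation.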

| Sequence | gcPBM binding intensity (ln) |
| --- | --- |
| AAAAATTATATATATATATATATATATATATGTATA [GTGCAC_negctrl_site488] | 7.61 |
| TGGTAAATTTACCGTTGTACATTCATTTATAACATT [XGTACX_site8910] | 6.44 |
| AAGAATATTAATATAAATAAGTAAATAAATAAATAA [CACACA_negctrl_site417] | 6.42 |
| CGCGCCCAGAAACACACACACACACCGATATATATA [CACACA_site5250] | 6.83 |
| TAATGTATCTAAAATTGTACAAATATAAATCTAAAT [XGTACX_site1197] | 6.49 |
| ATATATCTTCTTTGCACACTTAAAGGGAAGTGATAA [CACACA_site342] | 10.2 |
| AAAATAATAAAAAAAAAAAAAAAAAAAAAAAAGTAT [TGCATGCA_negctrl_site193] | 6.22 |
| AAATAAAATAAAACAACACACACGAATGTATAAATA [CACACA_site885] | 6.68 |
| AAAAAAATAATAAAATGTACAAATAAACACATAAAG [XGTACX_site5102] | 6.76 |
| ACAAAGATAAAACATAAAATATATCAAACATAAAAT [XGTACX_negctrl_site198] | 6.35 |
| AATAAATATAAATACACACCCATATAAATATAAATA [CACACA_site7264] | 6.85 |
| AAAAAAAATACATGTTGTACGGTACAAATATAAAGT [XGTACX_site2863] | 7.52 |
| TACATATTGAATAAGACACACATATATATATATATA [CACACA_site1878] | 9.43 |
| TAAGGATTGGTATAAAGTACAGGAGTAAATTGAAAA [XGTACX_site8525] | 6.5 |
| CATACACATATATATTGTACACATATATGTATGTAT [XGTACX_site4030] | 6.58 |
| ATATTTTTTTTTTATTGTACCCTCATAAAAGAAAAG [XGTACX_site773] | 6.36 |
| TACAACAAGTAATGGTGTACATTATATTATGTAATA [XGTACX_site1194] | 6.37 |
| TATAACAATTTTTATGCATGCGACTATAATATTTTT [TGCATGCA_site508] | 6.62 |
| TATATACACGCACATACACACAAATAAAAAAACACC [CACACA_site7578] | 8.22 |

| Sequence | gcPBM binding intensity (ln) |
| --- | --- |
| GTATTATTCTATAGAAGTACAGTATATTATTATTTA [XGTACX_site5073] | 6.26 |
| TGTGTTGTAATTAAAACACACATGAAAAAATTAAAA [CACACA_site51] | 6.62 |
| AAAAAAATAAATAAATGTACATATATAAAACATTGT [XGTACX_site2136] | 6.67 |
| ATATAATTATATTCCATACACACATATATTTAAAGG [CACACA_site2958] | 6.8 |
| AAACGAGAACATAATAAATACATAAATAAATAAATA [GTGCAC_negctrl_site433] | 6.43 |
| ATATACATATCAATGTAATATTATATACTTTTTTAG [CACACA_negctrl_site816] | 6.13 |
| ATTTTTTTTTTTTTTTTTTTTTTTTTTTTTGTTGTT [CACACA_negctrl_site1313] | 5.91 |
| TTAGATATTATTATATGTACATATTATATGTATTAT [XGTACX_site3836] | 6.37 |
| TAGTTAATATGATTATGTACATATATATATTAATTT [XGTACX_site1750] | 6.32 |
| ATAATATATTTATAAACACACAAAAAAAGTTATATA [CACACA_site6831] | 6.73 |
| TGTATATGAAAAAATAGTACTCATATAAATATCTTT [XGTACX_site6542] | 6.29 |
| ATTAATAATATTACATGTACATAATATAATTGAAAA [XGTACX_site5084] | 6.72 |
| TTTATTTTATTCACTATCATAAGCAAAACTTAAACA [GTGCAC_negctrl_site287] | 6.17 |
| AATATATTAAATATTACACACATACATTTAGTGTAA [CACACA_site5145] | 6.35 |
| TAGTTCTTTTAATTTAGTATTATACAATATTGGAAA [CACACA_negctrl_site521] | 6.3 |
| TATATATTAAACTTTGCACACATAATTTAACTACAA [CACACA_site3440] | 10.7 |
| TTAATCCACAGACACACACACACAAAATAAAATACA [CACACA_site244] | 6.88 |
| TTATTTATGAAGTATACACACAATATATATATATAT [CACACA_site1248] | 9.09 |
| TACATTGTATACATATGTACACATATATATATATAT [XGTACX_site6174] | 9.17 |

| Sequence | gcPBM binding intensity (ln) |
| --- | --- |
| TATTTATGTTATAATTGTACAATAAACAAATTTTTT [XGTACX_site5306] | 6.53 |
| AAAAAAATCTATATTACACACATATATACCTATATA [CACACA_site7464] | 6.36 |
| AAATGGGCTTATTTATGTACTTAAATATATCTACCC [XGTACX_site3823] | 6.44 |
| TAATCAATTCAATATTGTACGATATTTACCTTTAAA [XGTACX_site4678] | 7.25 |
| CCCACATAAAAAAATAAACACACATATGTATATATA [CACACA_site9040] | 7.07 |
| AACCTCGTGTAATATGCATGTTCCCTTCAAAGTTTT [TGCATGCA_site459] | 6.43 |
| TACATATATATATACACACATACATATATATACGCA [CACACA_site792] | 6.77 |
| ATATTTTGTATAATCACACACACTATTCTTAAATAG [CACACA_site7270] | 6.59 |
| AGAAATTAATCGAAGTGTACATATAAACATACATAT [XGTACX_site5518] | 6.39 |
| ATTATACATTTTAGATGTACATATTTTAAATTTAAT [XGTACX_site5174] | 6.35 |
| AACAAACAAACAAATATACACACTTTTGTATAAAGT [CACACA_site3509] | 6.68 |
| TATTTATTTGTGGGGTGTACGAAATTTTTTTTTTTT [XGTACX_site5091] | 7.67 |
| ATCTATGGAGCTTATACACACTTTTATATTTTAACA [CACACA_site5994] | 7.29 |
| TTTGAATTTTTATATACACACATTATTATATTATAT [CACACA_site1593] | 7.02 |
| TATATATATATAATGTGTACATACTAAATAGAGGAC [XGTACX_site4153] | 9.05 |
| TAAATATAAAAATGCACACACACAAAAAAAAAAAAA [CACACA_site895] | 9.29 |
| GAAATGTATAAATCCATACACACATAAATTTTAATA [CACACA_site2364] | 6.31 |
| TTTACATTAAATCACGCACACAAAAAAAAAAAAAAA [CACACA_site2418] | 6.62 |
